Laboratory results as given in the supplement of paper PMC4604168 (melanoma cell lines).
Some of the results follow. Single values are uncertain, as repeats are few or missing.

How the values were obtained:
Assay in all cases: cell count relative to DMSO control; melanoma cells; higher = more viable cells
Details in all cases: library dose: standard library concentration; 72 h
G361 = system: G361
IPC-298 = system: IPC-298
IST-MEL1 = system: IST-MEL1
LB2518-MEL = system: LB2518-MEL
LOXIMVI = system: LOXIMVI
MEL-HO = system: MEL-HO
MZ2-MEL = system: MZ2-MEL
MeWo = system: MeWo
RPMI7951 = system: RPMI7951
RVH-421 = system: RVH-421
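Note: cells treated in 1,536-well plates, then fixed and DAPI-stained, with nuclei counted from automated high-throughput microscope images.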

Row | SMILES | cell count (G361) [%] | cell count (IPC-298) [%] | cell count (IST-MEL1) [%] | cell count (LB2518-MEL) [%] | cell count (LOXIMVI) [%] | cell count (MEL-HO) [%] | cell count (MZ2-MEL) [%] | cell count (MeWo) [%] | cell count (RPMI7951) [%] | cell count (RVH-421) [%]
1 | Cc1cn(-c2cc(NC(=O)c3ccc(C)c(Nc4nccc(-c5cccnc5)n4)c3)cc(C(F)(F)F)c2)cn1 [nilotinib] + O=C1NC(=O)/C(=C/c2ccc(-c3ccc(F)cc3O)o2)S1 [AS252424] (first compound 1 µM, partner dose 5 µM) | 76.9 | 81.9 | 102 | 103 | 87.7 | 81.5 | 79.1 | 83.7 | 93.7 | 61.1
2 | Cc1cc(Nc2cc(N3CCN(C)CC3)nc(/C=C/c3ccccc3)n2)n[nH]1 + COc1cc(N2CCC(N3CCN(C)CC3)CC2)ccc1Nc1ncc(Cl)c(Nc2ccccc2S(=O)(=O)C(C)C)n1 [NVP-TAE684] (first compound 0.2 µM, partner dose 0.4 µM) | 75.4 | 85.1 | 85.5 | 84.4 | 86.7 | 74.4 | 80.5 | 70.8 | 53.8 | 81.9
3 | CC(C)C[C@H](NC(=O)[C@H](Cc1ccccc1)NC(=O)c1cnccn1)B(O)O [Bortezomib] + C[C@@H]1CCN(C(=O)CC#N)C[C@@H]1N(C)c1ncnc2[nH]ccc12 [CP690550] (first compound 0.005 µM, partner dose 5 µM) | 0.763 | 10.4 | 12.6 | 3.25 | 8.27 | 35.7 | 3.27 | 20.1 | 5.13 | 4.5
4 | Cc1cn(-c2cc(NC(=O)c3ccc(C)c(Nc4nccc(-c5cccnc5)n4)c3)cc(C(F)(F)F)c2)cn1 [nilotinib] + O=c1cc(-c2cccc3c2Sc2ccccc2S3)oc(N2CCOCC2)c1 [KU55933] (first compound 1 µM, partner dose 5 µM) | 67.9 | 83.4 | 82.1 | 99.7 | 89.3 | 83.7 | 84.9 | 77.8 | 68.4 | 111
5 | COc1ccc(C2=N[C@@H](c3ccc(Cl)cc3)[C@@H](c3ccc(Cl)cc3)N2C(=O)N2CCNC(=O)C2)c(OC(C)C)c1 [Nutlin-3] + CNC(=O)c1cc(Oc2ccc(NC(=O)Nc3ccc(Cl)c(C(F)(F)F)c3)cc2)ccn1 [sorafenib] (first compound 0.5 µM, partner dose 2 µM) | 70.6 | 83.3 | 100 | 67.7 | 111 | 102 | 103 | 109 | 94.1 | 66.6
6 | COc1ccc(C2=N[C@@H](c3ccc(Cl)cc3)[C@@H](c3ccc(Cl)cc3)N2C(=O)N2CCNC(=O)C2)c(OC(C)C)c1 [Nutlin-3] + CCc1ccc(CCOc2ccc(CC3SC(=O)NC3=O)cc2)nc1 [pioglitazone] (first compound 0.5 µM, partner dose 10 µM) | 82.8 | 106 | 87.4 | 79.8 | 84.4 | 86.2 | 97.1 | 107 | 103 | 67.5
7 | Cc1cn(-c2cc(NC(=O)c3ccc(C)c(Nc4nccc(-c5cccnc5)n4)c3)cc(C(F)(F)F)c2)cn1 [nilotinib] + CC1(C)NC(=O)N(c2ccc([N+](=O)[O-])c(C(F)(F)F)c2)C1=O [nilutamide] (first compound 1 µM, partner dose 5 µM) | 68.8 | 102 | 96.6 | 77.5 | 83.3 | 98.1 | 96.6 | 78.3 | 86.5 | 87.2
8 | Cc1cn(-c2cc(NC(=O)c3ccc(C)c(Nc4nccc(-c5cccnc5)n4)c3)cc(C(F)(F)F)c2)cn1 [nilotinib] + CS(=O)(=O)c1ccc(C(=O)Nc2ccc(Cl)c(-c3ccccn3)c2)c(Cl)c1 [vismodegib] (first compound 1 µM, partner dose 5 µM) | 90.5 | 105 | 93.1 | 88.7 | 170 | 106 | 123 | 110 | 107 | 119
9 | Cc1cc(Nc2cc(N3CCN(C)CC3)nc(/C=C/c3ccccc3)n2)n[nH]1 + CC1(C)NC(=O)N(c2ccc([N+](=O)[O-])c(C(F)(F)F)c2)C1=O [nilutamide] (first compound 0.2 µM, partner dose 5 µM) | 76.7 | 99.1 | 101 | 70.8 | 100 | 106 | 109 | 83.2 | 48.5 | 67.3
10 | COc1ccc(C2=N[C@@H](c3ccc(Cl)cc3)[C@@H](c3ccc(Cl)cc3)N2C(=O)N2CCNC(=O)C2)c(OC(C)C)c1 [Nutlin-3] + CC(=O)c1c(C)c2cnc(Nc3ccc(N4CCNCC4)cn3)nc2n(C2CCCC2)c1=O [palbociclib] (first compound 0.5 µM, partner dose 0.2 µM) | 60.3 | 65.9 | 68.4 | 57.9 | 54.2 | 72.5 | 46.8 | 51.2 | 52.3 | 46.5
11 | COc1ccc(C2=N[C@@H](c3ccc(Cl)cc3)[C@@H](c3ccc(Cl)cc3)N2C(=O)N2CCNC(=O)C2)c(OC(C)C)c1 [Nutlin-3] + Cc1nc(Nc2ncc(C(=O)Nc3c(C)cccc3Cl)s2)cc(N2CCN(CCO)CC2)n1 [dasatanib] (first compound 0.5 µM, partner dose 0.02 µM) | 68.3 | 76 | 76.8 | 69.1 | 18.6 | 67.2 | 44.4 | 82.3 | 45.9 | 43.1
12 | Cc1cn(-c2cc(NC(=O)c3ccc(C)c(Nc4nccc(-c5cccnc5)n4)c3)cc(C(F)(F)F)c2)cn1 [nilotinib] + NC1(c2ccc(-c3nc4ccn5c(=O)[nH]nc5c4cc3-c3ccccc3)cc2)CCC1 [MK2206] (first compound 1 µM, partner dose 2 µM) | 73.6 | 104 | 82.5 | 95.1 | 114 | 74.6 | 102 | 77.8 | 73.4 | 63.1
13 | COc1ccc(C2=N[C@@H](c3ccc(Cl)cc3)[C@@H](c3ccc(Cl)cc3)N2C(=O)N2CCNC(=O)C2)c(OC(C)C)c1 [Nutlin-3] + Oc1cc(-c2nc(-c3ccccc3)[nH]c2-c2ccncc2)ccc1Cl [L779450] (first compound 0.5 µM, partner dose 1 µM) | 43 | 78.2 | 83.6 | 74.1 | 96.8 | 91.9 | 84.7 | 100 | 98.6 | 64.8
14 | Cc1cn(-c2cc(NC(=O)c3ccc(C)c(Nc4nccc(-c5cccnc5)n4)c3)cc(C(F)(F)F)c2)cn1 [nilotinib] + Cc1cc(N2CCOCC2)cc2[nH]c(-c3c(NC[C@@H](O)c4cccc(Cl)c4)cc[nH]c3=O)nc12 [BMS536924] (first compound 1 µM, partner dose 1 µM) | 81.5 | 95.5 | 75.8 | 83.7 | 97.2 | 86.3 | 104 | 66.1 | 77.9 | 86.1
15 | Cc1cc(Nc2cc(N3CCN(C)CC3)nc(/C=C/c3ccccc3)n2)n[nH]1 + CN(C)S(=O)(=O)c1ccc2c(c1)/C(=C/c1cc3c([nH]1)CCCC3)C(=O)N2 [SU6656] (first compound 0.2 µM, partner dose 2 µM) | 62 | 62 | 83 | 53.6 | 82.3 | 84.3 | 96.5 | 87.4 | 46.4 | 63.4
16 | CC(C)C[C@H](NC(=O)[C@H](Cc1ccccc1)NC(=O)c1cnccn1)B(O)O [Bortezomib] + CN1CCN(c2ccc3nc(-c4c(N)c5c(F)cccc5[nH]c4=O)[nH]c3c2)CC1 [Dovitinib] (first compound 0.005 µM, partner dose 0.5 µM) | 0.293 | 12.3 | 5.66 | 2.48 | 29.8 | 20.2 | 4.84 | 14.2 | 2.73 | 113
17 | Cn1c(=O)n(-c2ccc(C(C)(C)C#N)cc2)c2c3cc(-c4cnc5ccccc5c4)ccc3ncc21 + C[C@@H]1CCN(C(=O)CC#N)C[C@@H]1N(C)c1ncnc2[nH]ccc12 [CP690550] (first compound 0.02 µM, partner dose 5 µM) | 77.2 | 93.2 | 98.8 | 109 | 79.6 | 71.8 | 120 | 69 | 99 | 125
18 | Cn1c(=O)n(-c2ccc(C(C)(C)C#N)cc2)c2c3cc(-c4cnc5ccccc5c4)ccc3ncc21 + Cn1cc(/C=C2\C(=O)Nc3cccnc32)c2ccccc21 [GW441756] (first compound 0.02 µM, partner dose 2 µM) | 85.6 | 86.7 | 88 | 105 | 90.7 | 80 | 86.3 | 92.4 | 92.8 | 96.1
19 | Cc1cn(-c2cc(NC(=O)c3ccc(C)c(Nc4nccc(-c5cccnc5)n4)c3)cc(C(F)(F)F)c2)cn1 [nilotinib] + CCN(CC)CCCCNc1ncc2cc(-c3cc(OC)cc(OC)c3)c(NC(=O)NC(C)(C)C)nc2n1 [PD173074] (first compound 1 µM, partner dose 0.5 µM) | 116 | 94.2 | 115 | 94.4 | 97.5 | 89.8 | 104 | 87.9 | 81.6 | 87.5
20 | CC(C)C[C@H](NC(=O)[C@H](Cc1ccccc1)NC(=O)c1cnccn1)B(O)O [Bortezomib] + CO[C@@H]1[C@H](N(C)C(=O)c2ccccc2)C[C@H]2O[C@]1(C)n1c3ccccc3c3c4c(c5c6ccccc6n2c5c31)C(=O)NC4 [Midostaurin] (first compound 0.005 µM, partner dose 0.4 µM) | 0.439 | 3.81 | 11 | 1.37 | 11.5 | 18 | 6.39 | 15 | 2.07 | 2.2
21 | Cc1cc(Nc2cc(N3CCN(C)CC3)nc(/C=C/c3ccccc3)n2)n[nH]1 + CCN(CC)CCCCNc1ncc2cc(-c3cc(OC)cc(OC)c3)c(NC(=O)NC(C)(C)C)nc2n1 [PD173074] (first compound 0.2 µM, partner dose 0.5 µM) | 108 | 98.2 | 115 | 72 | 72.9 | 113 | 117 | 85 | 114 | 109
